Screen size: about 150,000 compounds; about 540 (0.36%) showed an effect of 50% or more. The list shows a part of the results.
What follows are compounds tested on Plasmodium falciparum (assay: Primary screen in NF54 nanoGlo assay, in single point, at 2uM, 72h; a lower Z score goes with more inhibition). Conditions: timepoint 72 hour.
Type: functional, Erythrocyte

Row | Compound | % Inhibition | Z score
1 | Cc1ccc(CN(C(=O)c2oc3cc(C)c(C)cc3c2C)c2ccccn2)o1 | 15% | -1.72
2 | O=C(NCc1ccncc1)c1nnn2c1c(=O)[nH]c1ccccc12 | -3% | 0.66
3 | FC(F)c1nnc2ccc(N3CCCN(c4ccncc4)CC3)nn12 | -4% | 0.49
4 | Cc1nc2ccccn2c1CNC(=O)[C@@H]1CCCn2nccc21 | -14% | 2.4
5 | CC1CN(C(=O)CN2CCNCC2=O)CC(c2ccc(F)cc2)O1 (stereo unspecified) | 5% | -0.78
6 | Cc1cccnc1CN1C[C@@H](F)[C@@H](OCc2nc3ncccc3[nH]2)C1 | -5% | 0.82
7 | CC1=C(C)CN(S(=O)(=O)CC2C[C@@H]3COC[C@@H]3O2)CC1 (stereo partly specified) | 6% | -0.7
8 | Cn1ccnc1[C@@H]1CCCN1Cc1nccn1Cc1ccccc1 | 50% | -4.75
9 | O=C(CCCCN1C(=O)c2ccccc2C1=O)Nc1nc(-c2ccccc2)cs1 | -19% | 2.03
10 | C[C@H](NC(=O)CN1CCc2nn[nH]c2C1)c1cccs1 | -7% | 0.71
11 | O=C(O)[C@H](Cc1ccc(O)cc1)NC1CCN(c2ccc(F)c(F)c2)CC1 | -3% | 0.58
12 | Cc1nc(C#N)c(NC[C@@H](c2cccs2)N(C)C)o1 | -7% | 0.99
13 | COc1ccc2c(c1F)CC[C@@H]2NCc1cnc(C)cc1C | -11% | 1.5
14 | CN(C(=O)CCc1cn2ccccc2n1)[C@H]1CCN(Cc2ccccc2)C1 | 0% | 0.02
15 | O=C(CCc1cn[nH]c1)N[C@H]1COCC[C@@H]1O | -18% | 1.93
16 | COC(=O)C1CC(Oc2ccccc2F)CN1S(=O)(=O)c1cccnc1 (stereo unspecified) | -13% | 2.45
17 | C[C@H]1CCc2ccccc2N1Cc1nc(-c2ccsc2)no1 | 1% | -0.07
18 | CC(C)C1=NN([C@H]2CCCC[C@@H]2O)C(=O)C1 | -5% | 1.04
19 | CC(C)c1nccc(C(=O)N(C)C[C@H](C)CN2CCCC2)n1 | 2% | -0.34
20 | CN1C(=O)[C@@H]2CC[C@H]1CN(C(=O)Cn1c(C3CC3)nc3ccccc31)C2 | 1% | -0.2
21 | Cc1cc(C(=O)N2CC[C@@]3(CCCN(Cc4ccccc4F)C3=O)C2)n[nH]1 | -17% | 1.52
22 | COc1ccc(Cl)cc1-c1nc([C@H]2CC(=O)N(c3ccc(F)cc3)C2)no1 | -10% | 0.89

Row | Compound | % Inhibition | Z score
23 | COc1ccccc1NC(=O)c1cc(C)n2nccc2n1 | 1% | -0.17
24 | CC1CC(NCCc2ccccc2F)CN1Cc1ccccc1 (stereo unspecified) | -14% | 1.2
25 | CCc1cnc(N2CC[C@@H]3OCc4cccc(c4)Oc4cc(ccc4OC)C(=O)N(CCCO)CC(=O)N[C@H]3C2)nc1 | -19% | 3.53
26 | O=C(CN1C(=O)COc2ccc(Cl)cc21)NCCn1ccnc1 | -1% | 0.21
27 | CN(C)C(=O)C1C[C@@H]2OCC[C@@H]2N1C(=O)CCc1ccccc1O (stereo partly specified) | 10% | -1.64
28 | COc1cc(F)c([C@H](C)NCc2ocnc2C)cc1OC | 16% | -2
29 | Cc1ccnc(N2CCC[C@H]2C(C)(C)O)n1 | -8% | 1.17
30 | O=C(CCC1(Cc2ccccc2)CCC(=O)N1)N[C@H]1CCCCNC1=O (stereo partly specified) | 2% | -0.23
31 | Cc1ccc(OCCN2CCN(CC(=O)N3CCCc4ccccc43)CC2)cc1 | -10% | 1.34
32 | c1nc(CN2CCC(=C3CC3)CC2)no1 | -9% | 1.5
33 | Cc1nc(NCCN2CCCC[C@@H]2CO)c2ccsc2n1 | -13% | 2.05
34 | CCCOCC(=O)NC[C@H](Cc1ccc(C)cc1)C(=O)O | 22% | -2.6
35 | Fc1ccc(CNC[C@H]2Cn3ccnc3CO2)cc1F | 26% | -2.89
36 | Cc1ccc(-n2cc(C3CCN(C(=O)OC(C)(C)C)CC3)c(C(=O)Nc3ccc(F)cc3)n2)c(C)c1 | 12% | -1.39
37 | COc1ccc(S(=O)(=O)N2CC(=O)N(C3CCCC3)C3(CCCCC3)C2)cc1OC | -10% | 1.54
38 | Cc1cc(C)n(CC(=O)N(CCS(C)(=O)=O)C(C)(C)C)n1 | -8% | 0.93
39 | C[C@@H](CN1CCN(c2ccccc2)CC1)NC(=O)c1ccc[nH]1 | -6% | 1.1
40 | COc1ccc(OC2CCN(C(C)=O)CC2)c(C(=O)N(C)CCc2ncon2)c1 | -3% | 0.71
41 | CS(=O)(=O)c1ccc(C(F)(F)F)cc1N | 5% | -0.68
42 | C[C@@]1(C(=O)N2CCN(c3ccccc3F)CC2)Oc2cccnc2NC1=O | -6% | 1.07
43 | CC1=C[C@@H](CNCc2cccnc2)[C@H](C(C)C)C[C@H]1Cc1nnc(COc2ccc(F)cc2)o1 | 22% | -2.52

— ChEMBL document CHEMBL4888484, “Replenishing the malaria drug discovery pipeline: Screening and hit evaluation of the MMV Hit Generation Library 1 (HGL1) against asexual blood stage Plasmodium falciparum ,using a nano luciferase reporter read-out” (2022)
